According to patent US11866509B2, “Humanized antibodies against CEACAM1” (Famewave Ltd., priority 2014, dated 2024):

What was measured:
Type in all cases: cell-based
[1] = tested on: Human peripheral blood mononuclear cells (PBMCs) and whole blood; assay: T cell proliferation and pro-inflammatory cytokine secretion in PBMCs and whole blood; conditions: 10 healthy donors; soluble or dry-coated immobilized formats
Protocol: Pre-clinical evaluation of the safety of CM-24 included assessment of the effect of CM-24 on T cell proliferation and pro-inflammatory cytokine secretion. Human peripheral blood mononuclear cells (PBMCs) and whole blood from 10 healthy donors were evaluated and the antibody was presented by both soluble and immobilized form.

[2] = tested on: PD-L1 expression on human melanoma cancer cells (SKMEL28); assay: PD-L1 levels on melanoma cells co-incubated with NK92MI cells, FACS; conditions: 10 μg/ml CM-24; 24, 48 and 72 hours
Protocol: FIG. 7. Treatment with anti-CEACAM1 antibodies increases PD-L1 expression on target cancer cells. NK cells (NK92MI) were incubated with or without CM-24 (10 μg/ml), followed by the addition of human melanoma cells (SKMEL28). The cells were incubated for 24, 48 and 72 hours and PD-L1 levels were measured at each time point by FACS analysis. Mean ratio of anti-PD-L1 compared to an appropriate isotype control for the indicated treatments at the different time points.
Human melanoma cancer cells (MALME 3M) were grown in the presence of IFN-ã to induce PD-L1 expression. Human TIL cells (TIL14) were incubated with a monoclonal antibody to human CEACAM1 (CM-24) (0.01 μg/ml, 0.05 μg/ml, 0.1 μg/ml, 0.5 μg/ml), a monoclonal antibody to human PD-1 (clone E12.2H7) or with a combination of both antibodies (0.005, 0.025, 0.05 and 0.25 μg/ml of each antibody) for 30 minutes at 37° C. […] The combination index (CI) was calculated to be 0.15. In the same assay, the level of the cytotoxic protein granzyme B that is secreted upon cytotoxic cell activation was evaluated by commercial granzyme B ELISA Kit. […] The combination index (CI) was calculated to be 0.67. Results represent an average of % cytotoxicity ±SE as determined by classical LDH release assay from triplicate wells per treatment. * P≤0.05 paired T-test compared to a-PD-L1 only. […]

[3] = tested on: CEACAM1 positive non-target cells (human normal cells); assay: Cytotoxic activity of effector lymphocytes against non-target cells
From the text: CM-24 enhances the cytotoxic activity of effector cells in the presence of CEACAM1 positive tumor cells and in the context of a specific human leukocyte antigen (HLA)-restricted T cell reaction.

B1: CM-24: back-mutated humanized IgG4 anti human CEACAM1 monoclonal antibody; light chain SEQ ID NO: 52, heavy chain SEQ ID NO: 53 (antibody)
heavy: QVQLVQSGAEVKKPGASVKVSCKASGYAFTNNLIEWVRQAPGQGLEWIGVINPGSGDTNYNEKFKGRVTMTADKSISTAYMELSRLRSDDTAVYYCARGDYYGGFAVDYWGQGTTVTVSSASTKGPSVFPLAPCSRSTSESTAALGCLVKDYFPEPVTVSWNSGALTSGVHTFPAVLQSSGLYSLSSVVTVPSSSLGTKTYTCNVDHKPSNTKVDKRV[letters of human IgG4 Fc with S228P (EU numbers) left out]
light: DIQMTQSPSSLSASVGDRVTITCRTSQDIGNYLNWYQQKPGKAVKLLIYYTSRLHSGVPSRFSGSGSGTDYTLTISSLQPEDIATYFCQQGKSLPRTFGGGTKVEIKRTVAAPSVFIFPPSDEQLKSGTASVVCLLNNFYPREAKVQWKVDNALQSGNSQESVTEQDSKDSTYSLSSTLTLSKADYEKHKVYACEVTHQGLSSPVTKSFNRGEC
[1]
  T cell proliferation: no apparent CM-24-induced proliferation
  pro-inflammatory cytokine secretion: no significant pro-inflammatory cytokine secretion
[2]
  PD-L1 expression on surviving cancer cells: increased PD-L1 expression
[3]
  cytotoxic activity of effector lymphocytes against non-target cells: does not enhance
